This sample is rich in variants without activity.
B1: TPR 5TU (parent)
chain: GGAUCUUCUCGAUCUAACAAAAAAGACAAAUCUGCCACAAAGCUUGAGAGCAUCUUCGGAUGCAGAGGCGGCAGCCUUCGGUGGCGCGAUAGCGCCAACGUUCUCAACUAUGACACGCAAAACGCGUGCUCCGUUGAAUGGAGUUUAUCAUG

Variants of: B1
Test: polymerase ribozyme fitness, log enrichment relative to wild type (log ratio); higher = more active; in vitro selection for triplet polymerase activity
Outline: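 Fitness measures genotype enrichment against wild-type enrichment on a logarithmic scale, with inverse-variance-weighted averaging of replicates. The logarithm is base 2, and genotypes were kept only with ≥10 input reads and ≥1 read per output in Illumina sequencing. The sequenced libraries came from one triplicate in vitro selection round, including frozen incubation at −7 °C, of PCR-built, transcribed mutant libraries of each subunit of a heterodimeric triplet polymerase ribozyme.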

Variant | polymerase ribozyme fitness (log ratio)
G42A C87A A115U | ≤ -4.2
G42A C57U G58U C95U C105G G117C U151C | ≤ -4.2
C43A C76G C95G U144C | ≤ -4.2
A41U C51A G86C G88C | ≤ -4.2
G42U A52C A60C C85A C105U A107G | ≤ -4.2
G42U U55G C85U G128U U146G | ≤ -4.2
G42A U53A U77G A91U A115G U135G | ≤ -4.2
G42A U45A A47U G50A A64G A89U C93G G136C | ≤ -4.2
A41U G50A C51A G84C A91G G128A | ≤ -4.2
G42A G65U G80C | ≤ -4.2
A41U A122C G126U U130G U146A | ≤ -4.2
G42A C63A U82C C95G C103U C114G C118U | ≤ -4.2
C43A A64G G67A U109G A147G | ≤ -4.2
A41G U56A C79U U82G C85U A122G C129A G136U | ≤ -4.2
G42A G94U | ≤ -4.2
C43A C76U C95U | ≤ -4.2
G42U G48C A66U C85A C132G | ≤ -4.2
A41G U45C G50U C76U G100C A150G | ≤ -4.2
A41G U44G C79A A91C | ≤ -4.2
G42C C69G A91C A115G | ≤ -4.2
G42C G83A | ≤ -4.2

Variant | polymerase ribozyme fitness (log ratio)
G42U U44C A91U A107G A142U | ≤ -4.2
G42C C54G A66G C75G G92A C105G C108U U130G G141A | ≤ -4.2
A41U A47C G59U U61A | ≤ -4.2
G42C A60G A113U G140U | -3.85
A41U U45G C69U C108G C118G | ≤ -4.2
G42C A66C | ≤ -4.2
G42C C76U G141C | ≤ -4.2
G42U U44A C57G U82G C87A A113G U135A | ≤ -4.2
G42C C85A A110G A113U C116G A138U G143C | ≤ -4.2
G42A A52G G59A A60U U144C | ≤ -4.2
A41G G42U C54G G88U G143A | ≤ -4.2
A41G U44G U45A A49C C51U C79U A91U G94C U144G | ≤ -4.2
G42A U44G U55A G88C A89G C99G G133U A138C A147U | ≤ -4.2
A41U G62C C95U C96A G112U A142U U146A A150G | ≤ -4.2
G42C A52C C54U C96U | ≤ -4.2
G42C G65C G68C C129A | ≤ -4.2
A41U G58C G68C G81A C116G A142C | ≤ -4.2
G42A C63U G70U G143U | ≤ -4.2
G42A G50A G81U C93G A97G A110G A115U G124C | ≤ -4.2
G42A U44A G59U U104G A122G G126A | ≤ -4.2
G42C U45A C87G | ≤ -4.2

Variant | polymerase ribozyme fitness (log ratio)
G42A G84A A97G | ≤ -4.2
G42C U77A G140U U145A | ≤ -4.2
G42U A52G G94U U102G | ≤ -4.2
G42C G46A A91U C125A U148A | ≤ -4.2
G42C G48U | ≤ -4.2
G42A G48C G70A C93A C105A A107U | ≤ -4.2
A41G G88U | -3.82
A41G U139A G143C | ≤ -4.2
A41U C85G U90G G152A | ≤ -4.2
A41U C87A A89U | ≤ -4.2
C43A U61G G62A U90G C96U C116G C125U | ≤ -4.2
G42C C93G U135G | ≤ -4.2
G42U U90C A106U A107C | ≤ -4.2
A41U C54U C72U C99G C123U | ≤ -4.2
G42C A49U C87A A89C | ≤ -4.2
G42A G140A | ≤ -4.2
G42C U53A C79U C85G A89U C125U | ≤ -4.2
G42C C63A C76U G81A C85A C87U C99A | ≤ -4.2
G42C A60G C123G G126C U127C | ≤ -4.2
G42A C85G | ≤ -4.2
G42C G94C G112C | ≤ -4.2

Variant | polymerase ribozyme fitness (log ratio)
G42A U45A C85U G94A A97C | ≤ -4.2
C43A C95A G141U U145G | ≤ -4.2
C43A A47C | ≤ -4.2
G42A U56A C85A U104G | ≤ -4.2
A41U C95U A98C | -1.48
G42A C93U C116A A150G | ≤ -4.2
A41G U44G C75A G92A U102A U148C | ≤ -4.2
G42C A73G C76A A91U G92A C129A G152C | ≤ -4.2
C43A C85U G124A G133U U151A | ≤ -4.2
C43A G58C | ≤ -4.2
C43A U56A G84A A91U G126A A150G | ≤ -4.2
G42U U55C C116G | ≤ -4.2
A41G G68U C93G U102A C116A A121G C123U A150U | ≤ -4.2
G42A G59A G74U C96G A137G | ≤ -4.2
G42C C63A A66C A115C G141U | ≤ -4.2
G42A C63U G68A G80A C85G G126A | ≤ -4.2
G42A A52G G70C G141C | ≤ -4.2
A41G G46U A89U C93G A120G | ≤ -4.2
A41U C51A G83A G92A G133C | ≤ -4.2
A41G U55A C72G A91G U145G | ≤ -4.2
